In the BET-seq Pho4 binding data (Le et al. 2018):
This is one part of the list. Values were computed here from the reads of four pooled replicates and scatter widely.

These sequences were tested against T1, Pho4 (S. cerevisiae) (UniProt P07270) (assay: relative binding free energy (BET-seq); higher = weaker binding). Conditions: reference: library average.
T1 sequence: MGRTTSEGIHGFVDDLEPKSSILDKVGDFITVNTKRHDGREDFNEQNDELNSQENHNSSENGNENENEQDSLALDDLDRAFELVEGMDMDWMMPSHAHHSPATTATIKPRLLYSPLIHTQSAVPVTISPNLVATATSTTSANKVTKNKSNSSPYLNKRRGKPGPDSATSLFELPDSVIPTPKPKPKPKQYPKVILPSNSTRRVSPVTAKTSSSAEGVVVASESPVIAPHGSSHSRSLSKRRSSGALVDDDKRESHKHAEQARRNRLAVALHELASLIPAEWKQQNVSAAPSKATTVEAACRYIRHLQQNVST
TATCTCACGTGTTAAG was tested, and the “relative binding free energy” value was 0.47 kcal/mol. TATTACACGTGTGGTT was tested, and the “relative binding free energy” value was 0.08 kcal/mol. In the case of AGGTACACGTGCGGGT, the “relative binding free energy” value is reported as -0.02 kcal/mol. In the case of GGATCCACGTGAGGGG, the “relative binding free energy” value is reported as 0.2 kcal/mol. With CATATCACGTGATGTT the “relative binding free energy” value was 0.27 kcal/mol. GGGTTCACGTGTGGCC was tested, and the “relative binding free energy” value was 0.44 kcal/mol. For GTGTACACGTGACGGG, the “relative binding free energy” value was 0.27 kcal/mol. For AAGTTCACGTGAGAAG, the “relative binding free energy” value was 0.38 kcal/mol. TGTAGCACGTGGGCTG was tested, and the “relative binding free energy” value was -0.27 kcal/mol. With TTTTACACGTGTGTAT the “relative binding free energy” value was 0.16 kcal/mol. In the case of GGACGCACGTGGGGGA, the “relative binding free energy” value is reported as -0.31 kcal/mol. For CTCAGCACGTGTGGGG, the “relative binding free energy” value was -0.03 kcal/mol. For CGGGTCACGTGGATTT, the “relative binding free energy” value was 0.15 kcal/mol. In the case of AGGTGCACGTGTGTGT, the “relative binding free energy” value is reported as 0 kcal/mol. In the case of TTGGTCACGTGTATGA, the “relative binding free energy” value is reported as 0.01 kcal/mol. With GGGTACACGTGATGTG the “relative binding free energy” value was 0.25 kcal/mol. In the case of TTTGGCACGTGCGGTC, the “relative binding free energy” value is reported as -0.13 kcal/mol. In the case of GGATGCACGTGTGTTC, the “relative binding free energy” value is reported as 0.06 kcal/mol. With GGATACACGTGGGCGG the “relative binding free energy” value was -0.01 kcal/mol. With CGCAACACGTGGGTGT the “relative binding free energy” value was -0.08 kcal/mol. In the case of TTGGGCACGTGTAGAA, the “relative binding free energy” value is reported as -0.07 kcal/mol. CGTGTCACGTGGGTGA was tested, and the “relative binding free energy” value was -0.09 kcal/mol. With ATTTGCACGTGGGGCA the “relative binding free energy” value was -0.24 kcal/mol. With AATTTCACGTGAGTGT the “relative binding free energy” value was 0.27 kcal/mol. In the case of AGGGCCACGTGGTTGT, the “relative binding free energy” value is reported as -0.11 kcal/mol. In the case of TGATTCACGTGGGCGA, the “relative binding free energy” value is reported as 0.24 kcal/mol. For AGCGTCACGTGGTTGT, the “relative binding free energy” value was -0.04 kcal/mol. With TGGTTCACGTGTAGTT the “relative binding free energy” value was 0.37 kcal/mol. For TTCGGCACGTGTGGTA, the “relative binding free energy” value was -0.06 kcal/mol. For CGTGGCACGTGATTGA, the “relative binding free energy” value was 0 kcal/mol. With ATGAGCACGTGTTTCG the “relative binding free energy” value was -0.06 kcal/mol. In the case of GGTGCCACGTGATTTT, the “relative binding free energy” value is reported as 0.13 kcal/mol. CTTATCACGTGGGAGG was tested, and the “relative binding free energy” value was 0.07 kcal/mol. TAGGACACGTGTTTGG was tested, and the “relative binding free energy” value was 0.01 kcal/mol. For GAAGGCACGTGTGGCT, the “relative binding free energy” value was -0.09 kcal/mol. For GGATGCACGTGGATTT, the “relative binding free energy” value was -0.07 kcal/mol. With CCATTCACGTGTGGGG the “relative binding free energy” value was 0.1 kcal/mol. For AATAACACGTGAGTTG, the “relative binding free energy” value was 0.17 kcal/mol. In the case of GTAGGCACGTGTATGA, the “relative binding free energy” value is reported as -0.18 kcal/mol. With TTGGACACGTGGAGGT the “relative binding free energy” value was 0.02 kcal/mol. In the case of TTATGCACGTGAGGCT, the “relative binding free energy” value is reported as 0.28 kcal/mol. In the case of AGGGGCACGTGGAGGT, the “relative binding free energy” value is reported as -0.06 kcal/mol. AGTGTCACGTGGTTAG was tested, and the “relative binding free energy” value was 0.04 kcal/mol. In the case of TATTGCACGTGGACTG, the “relative binding free energy” value is reported as 0.08 kcal/mol. With AGTAACACGTGCTGTT the “relative binding free energy” value was -0.12 kcal/mol. AGTGGCACGTGTGAGG was tested, and the “relative binding free energy” value was 0 kcal/mol. In the case of CTGGTCACGTGTAAGT, the “relative binding free energy” value is reported as 0.12 kcal/mol. In the case of ATTGGCACGTGTGCGC, the “relative binding free energy” value is reported as -0.02 kcal/mol. ATATTCACGTGGTTGA was tested, and the “relative binding free energy” value was 0.16 kcal/mol. For CTTTGCACGTGGTATT, the “relative binding free energy” value was -0.08 kcal/mol. In the case of GTGGACACGTGACTGG, the “relative binding free energy” value is reported as 0.08 kcal/mol. TGCGTCACGTGGGCTG was tested, and the “relative binding free energy” value was -0.12 kcal/mol. For TATGTCACGTGGGCGC, the “relative binding free energy” value was -0.15 kcal/mol. With GCGAGCACGTGGAGTG the “relative binding free energy” value was -0.12 kcal/mol. For AGCGGCACGTGACTGT, the “relative binding free energy” value was 0.13 kcal/mol. With TTGAACACGTGAGTGT the “relative binding free energy” value was 0.25 kcal/mol. With ATATGCACGTGGGGTG the “relative binding free energy” value was -0.25 kcal/mol. With TGCTCCACGTGTGGTG the “relative binding free energy” value was 0.09 kcal/mol. For TTGTGCACGTGATAGG, the “relative binding free energy” value was 0 kcal/mol. TTATTCACGTGTAGGA was tested, and the “relative binding free energy” value was 0.26 kcal/mol. TTGTTCACGTGGTACG was tested, and the “relative binding free energy” value was 0.2 kcal/mol. With CGTGGCACGTGGGAGG the “relative binding free energy” value was -0.2 kcal/mol. AGGGTCACGTGGCGAG was tested, and the “relative binding free energy” value was -0.01 kcal/mol. AGTGTCACGTGGTTGT was tested, and the “relative binding free energy” value was 0.02 kcal/mol. With TGACCCACGTGTGTGT the “relative binding free energy” value was -0.07 kcal/mol. GGTTTCACGTGGAGTG was tested, and the “relative binding free energy” value was 0.24 kcal/mol. For CGTGTCACGTGTGATG, the “relative binding free energy” value was 0.14 kcal/mol. For GCTGTCACGTGTTTAA, the “relative binding free energy” value was 0.35 kcal/mol. For AATAACACGTGGATGT, the “relative binding free energy” value was 0.12 kcal/mol. For ATCTGCACGTGTGGTT, the “relative binding free energy” value was 0.06 kcal/mol. For TATGGCACGTGCGGGG, the “relative binding free energy” value was -0.26 kcal/mol. With CTATTCACGTGATGTG the “relative binding free energy” value was 0.3 kcal/mol. For TGTAACACGTGGATGA, the “relative binding free energy” value was 0.09 kcal/mol. For GGTGTCACGTGACCTG, the “relative binding free energy” value was 0.32 kcal/mol. For TATTGCACGTGCGGGC, the “relative binding free energy” value was -0.1 kcal/mol. With GTGGGCACGTGAGGTG the “relative binding free energy” value was 0.17 kcal/mol. In the case of TTGTTCACGTGCTCTT, the “relative binding free energy” value is reported as 0.05 kcal/mol. In the case of CGGGTCACGTGTGTGG, the “relative binding free energy” value is reported as 0.19 kcal/mol. In the case of TTGCTCACGTGAGCGG, the “relative binding free energy” value is reported as 0.35 kcal/mol. For TCGGGCACGTGGTTAT, the “relative binding free energy” value was -0.17 kcal/mol. With TCGGACACGTGGTGTT the “relative binding free energy” value was -0.06 kcal/mol. With TTATGCACGTGATGTG the “relative binding free energy” value was 0.1 kcal/mol. With TGTAGCACGTGTTGCG the “relative binding free energy” value was -0.03 kcal/mol. In the case of GGGTTCACGTGATTTA, the “relative binding free energy” value is reported as 0.39 kcal/mol. With TGATCCACGTGGTTAG the “relative binding free energy” value was 0.05 kcal/mol. GTACTCACGTGGGTTT was tested, and the “relative binding free energy” value was 0.14 kcal/mol. In the case of GAAGTCACGTGATTAG, the “relative binding free energy” value is reported as 0.24 kcal/mol. For GTCGTCACGTGTGGCA, the “relative binding free energy” value was 0.24 kcal/mol. With CTTGACACGTGGAGTG the “relative binding free energy” value was -0.05 kcal/mol. For CTTGGCACGTGCTGGT, the “relative binding free energy” value was -0.13 kcal/mol. In the case of ATAGTCACGTGATATG, the “relative binding free energy” value is reported as 0.17 kcal/mol. TGGTGCACGTGCTTAA was tested, and the “relative binding free energy” value was -0.09 kcal/mol. In the case of TATAGCACGTGGAGTC, the “relative binding free energy” value is reported as -0.11 kcal/mol. In the case of CTGGGCACGTGTAGGT, the “relative binding free energy” value is reported as -0.09 kcal/mol. In the case of GGGTTCACGTGAAATC, the “relative binding free energy” value is reported as 0.55 kcal/mol. For ATTTTCACGTGAGCTA, the “relative binding free energy” value was 0.32 kcal/mol. In the case of GGCATCACGTGTGGTG, the “relative binding free energy” value is reported as 0.13 kcal/mol. In the case of AGTTTCACGTGTGATG, the “relative binding free energy” value is reported as 0.38 kcal/mol. In the case of GGGGTCACGTGTCGGT, the “relative binding free energy” value is reported as 0.23 kcal/mol. In the case of ATGTTCACGTGTACAG, the “relative binding free energy” value is reported as 0.16 kcal/mol. With AGAGTCACGTGGGGGT the “relative binding free energy” value was -0.02 kcal/mol. With GTTAGCACGTGAATAG the “relative binding free energy” value was 0.25 kcal/mol. For ATGGGCACGTGAGCGT, the “relative binding free energy” value was -0.09 kcal/mol. TGCGGCACGTGGTTGA was tested, and the “relative binding free energy” value was -0.06 kcal/mol. With TTAAGCACGTGAGGAT the “relative binding free energy” value was 0.25 kcal/mol. With AGTATCACGTGTCGGT the “relative binding free energy” value was 0.16 kcal/mol. In the case of TATGTCACGTGTGTTA, the “relative binding free energy” value is reported as 0.07 kcal/mol. In the case of GTTTGCACGTGTAATA, the “relative binding free energy” value is reported as 0.19 kcal/mol. In the case of CCGGTCACGTGTGAGT, the “relative binding free energy” value is reported as 0.36 kcal/mol. In the case of GCGAGCACGTGTGTTA, the “relative binding free energy” value is reported as 0.02 kcal/mol. In the case of GGCGGCACGTGACGGG, the “relative binding free energy” value is reported as 0.06 kcal/mol. GTGCACACGTGGGTGC was tested, and the “relative binding free energy” value was -0.06 kcal/mol. In the case of TTTGACACGTGGATTA, the “relative binding free energy” value is reported as 0.02 kcal/mol. In the case of CATTTCACGTGTAGGG, the “relative binding free energy” value is reported as 0.17 kcal/mol. For TTGTACACGTGTGTCA, the “relative binding free energy” value was 0.09 kcal/mol.
